Data taken from US6627771B1, “Gamma amino butyric and acid analogs” (Pfizer Inc, priority 1998, dated 2003).

The compounds below were run against α2δ subunit derived from porcine brain tissue (Sus scrofa, UniProt A0A287BIN3) (assay: radioligand binding assay using [3H]gabapentin and the α2δ subunit). Settings: α2δ Assay IC50, [3H]gabapentin.

Structure (SMILES)	IC50 [nM]
NCC(CC(=O)O)CC1CCC1 (stereo not shown) [Example 7]	317
CC(CN)(CC(=O)O)CC1CCCC1 (stereo not shown) [Example 13]	> 10000
NCC(CC(=O)O)CC1CC1 (stereo not shown) [Example 6]	626
NCC(CC(=O)O)CC1CCCC1 (stereo not shown) [Example 8]	3180
NC[C@@H](CC(=O)O)C1CCCC1 [5S−, (S)-4-Amino-3-cyclopentyl-butyric Acid]	145
NCC(CC(=O)O)C1CCC1 (stereo not shown) [Example 1, 4-Amino-3-cyclobutyl-butyric Acid]	733
NC[C@H](CC(=O)O)C1CCCC1 [4R+, 4(R)-Amino-3-cyclopentyl-butyric Acid]	108
NCC(CC(=O)O)CC1CCCCC1 (stereo not shown) [Example 9]	4870
CC(CN)(CC(=O)O)C1CC1 (stereo not shown) [Example 10]	~10000
NCC(CC(=O)O)C1CCC1 (stereo not shown) [Example 2, 4-Amino-3-cyclobutyl-butyric Acid]	645
CC(CN)(CC(=O)O)CC1CCC1 (stereo not shown) [Example 12]	800
NCC(CC(=O)O)C1CCCC1 (stereo not shown) [Example 3, 4-Amino-3-cyclopentyl-butyric Acid]	133
CC(CN)(CC(=O)O)C1CCC1 (stereo not shown) [Example 11]	> 10000
